# Data published in PMC4336329 (PLoS ONE, 2015).
# About 2,200 (0.71%) of roughly 310,000 compounds showed an effect of 50% or more. The effect is printed as a negative number. This is one part of the list.
# Target: human ether-à-go-go-related gene (hERG) potassium channel (human, UniProt Q12809)
# Assay: primary screen, population patch clamp on CHO cells stably expressing hERG
# Chain of human ether-à-go-go-related gene (hERG) potassium channel (Q12809 whole entry, looked up): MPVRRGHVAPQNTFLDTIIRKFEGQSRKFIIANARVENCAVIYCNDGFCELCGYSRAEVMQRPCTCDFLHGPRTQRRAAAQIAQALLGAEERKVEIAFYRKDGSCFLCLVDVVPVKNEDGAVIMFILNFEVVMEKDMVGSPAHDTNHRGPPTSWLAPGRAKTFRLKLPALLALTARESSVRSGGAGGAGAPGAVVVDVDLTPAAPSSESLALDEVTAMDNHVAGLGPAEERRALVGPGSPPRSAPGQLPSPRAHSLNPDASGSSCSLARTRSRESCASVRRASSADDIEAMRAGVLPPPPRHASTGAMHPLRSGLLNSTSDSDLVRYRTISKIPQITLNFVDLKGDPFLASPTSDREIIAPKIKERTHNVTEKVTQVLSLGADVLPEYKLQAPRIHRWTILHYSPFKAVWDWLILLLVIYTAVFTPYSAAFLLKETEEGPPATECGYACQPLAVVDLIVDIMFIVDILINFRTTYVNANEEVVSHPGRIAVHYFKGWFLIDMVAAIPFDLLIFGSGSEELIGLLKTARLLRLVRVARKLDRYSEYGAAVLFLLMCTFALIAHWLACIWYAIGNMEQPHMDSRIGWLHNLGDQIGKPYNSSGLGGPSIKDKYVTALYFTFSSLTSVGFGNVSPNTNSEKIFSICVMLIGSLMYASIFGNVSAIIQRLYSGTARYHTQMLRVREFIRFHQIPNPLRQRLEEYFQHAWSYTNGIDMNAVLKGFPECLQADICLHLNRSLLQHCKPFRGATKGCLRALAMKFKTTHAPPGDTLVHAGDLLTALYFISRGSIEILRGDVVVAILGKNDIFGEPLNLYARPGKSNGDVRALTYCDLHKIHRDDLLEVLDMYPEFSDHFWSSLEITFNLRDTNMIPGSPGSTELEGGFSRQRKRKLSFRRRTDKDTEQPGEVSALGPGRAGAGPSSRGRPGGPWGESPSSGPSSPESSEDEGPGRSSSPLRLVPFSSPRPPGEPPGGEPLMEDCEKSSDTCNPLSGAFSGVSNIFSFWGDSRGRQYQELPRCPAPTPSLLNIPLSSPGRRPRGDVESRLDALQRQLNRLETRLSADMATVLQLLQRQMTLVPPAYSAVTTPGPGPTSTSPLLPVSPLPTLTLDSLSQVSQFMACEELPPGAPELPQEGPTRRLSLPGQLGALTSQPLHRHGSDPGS
row,Compound,"hERG current change (%, negative = inhibition) at 1uM [%]"
1,Cc1ccc(C)c(NC(=O)/C(C#N)=C/c2cn(CC(=O)NCc3ccco3)c3ccccc23)c1,14.5
2,COc1cc(OC)cc(-n2nnnc2SCC(=O)NC2CCCC2)c1,-2.92
3,C=CCN1CC(=O)N2C(c3ccccc3)c3[nH]c4ccccc4c3C[C@H]2C1=O (stereo partly drawn),6.93
4,Cc1cc(NC(=O)CN2C(=O)c3ccccc3S2(=O)=O)no1,13.8
5,O=C(C[n+]1ccc(C(=O)N/N=C/c2ccc(Cl)cc2Cl)cc1)c1ccccc1.[Br-],-63.3
6,Cc1cc(NC(=O)c2cc([N+](=O)[O-])ccc2Cl)no1,13.2
7,Cc1ccccc1NC(=O)C1CCCN1C(=O)NC1CCCCC1 (stereo not drawn),17.4
8,O=S(=O)(c1ccc(F)cc1)N1CCC(n2cnc3ccccc32)CC1,-3.52
9,CCOC(=O)C1=C(c2ccccc2)Nc2c(c(=O)n(C)c(=O)n2C)C1c1ccc(O)c(OC)c1 (stereo not drawn),2.01
10,CCCOc1ccc(C(=O)Nc2cc(-c3nn4c(C)nnc4s3)ccc2C)cc1,14.9
11,Cc1ccc(-c2nc(CS(=O)CC(=O)NCCN(CC(C)C)CC(C)C)c(C)o2)cc1 (stereo not drawn),-4.56
12,CN(C)c1ccc(/C=N/NC(=O)CNC(=O)/C=C/c2ccco2)cc1,8.77
13,CCOC(=O)N1CCC(N(CCN(C)C)C(=S)Nc2ccc(OCC)cc2)CC1,6.4
14,Cc1ccc(SCC(=O)NC2CCCCCC2)cc1,10.8
15,CCN(CC)C(=O)CSc1nnc(-c2cccs2)n1Cc1ccco1,2.57
16,COc1ccc2c(c1)[nH]c1c(=O)n(CCCN3CCOCC3)cnc12,8.51
17,Cc1cc(C(=O)Nn2c(-c3ccc(Br)cc3)nc3ccccc3c2=O)ccc1[N+](=O)[O-],11.9
18,COc1cccc(/C=C2\Sc3ccc(C(=O)NCC4CCCO4)cc3N(C)C2=O)c1 (stereo not drawn),6.63
19,COc1cc(C(=O)NCC(c2ccco2)N(C)C)cc(OC)c1OC (stereo not drawn),3.1
20,O=C(CSc1nc2ccccc2s1)Nn1cnnc1,4.59
21,COC(=O)c1ccccc1NC(=O)c1cc[n+]([O-])cc1,5.25
22,COCCNS(=O)(=O)c1ccc(-c2ccc(C)cc2)cc1,2.91
23,O=[N+]([O-])c1ccc(-c2nc(-c3ccncc3)no2)cc1,1.86

row,Compound,"hERG current change (%, negative = inhibition) at 1uM [%]"
1,CC(=O)Nc1ccc(NC(=O)[C@@H]2CCCC[C@@H]2C(=O)O)cc1,10.3
2,CCCCCC(=O)Nc1ccc2ccccc2c1,9.07
3,CCOc1cc(-c2nc(C)c(C(C)=O)n2O)ccc1OCC(=O)Nc1ccccc1,-2.12
4,Cc1ccccc1-c1noc(-c2ccc(O)cc2)n1,8.09
5,COc1ccc(CN(C)CC(=O)Nc2ccccc2C(F)(F)F)c(OC)c1.O=C(O)C(=O)O,4.33
6,O=C(Oc1ccc([N+](=O)[O-])cc1)c1cncc(Br)c1,2.34
7,CC(C)(O)C#Cc1ccc(C(=O)N2CCCC(CCC(=O)NCc3ccccc3F)C2)cc1 (stereo not drawn),6.38
8,CCOC(=O)CNC1CC(=O)N(c2cccc(Cl)c2)C1=O (stereo not drawn),3.44
9,CCOC(=O)CNC(=O)Cn1cnc2c(oc3ccccc32)c1=O,0.131
10,COc1cc(C(=O)NNC(=O)c2ccc(F)cc2)ccc1OCC(=O)N1CCOCC1,10.3
11,COc1cccc(-c2nnc(NC(=O)c3ccc(Cl)s3)o2)c1,7.08
12,CCC1=Nc2cc(C(=O)NCc3ccco3)ccc2Sc2ccccc21,6.59
13,CCc1cccc(NC(=O)CCS(=O)(=O)c2ccc3c(c2)NC(=O)CO3)c1,-0.436
14,NC(=O)C1CCN(C(=O)c2ccccc2CCc2ccccc2)CC1,13.6
15,COc1ccc(N2CCN(C(=O)CCN3C(=O)C4C5C=CC(C5)C4C3=O)CC2)cc1 (stereo not drawn),8.87
16,O=C(O)COCC(=O)NCc1csc2ccc(Cl)cc12,14
17,COc1ccc(CNCc2ccncc2)c(OC)c1.Cl,7.51
18,COc1ccc(/C=N/NC(=O)c2cccnc2)cc1CN1CCCc2ccccc21,7.64
19,Cn1c(=O)c2c(nc(NCc3ccco3)n2C/C=C/c2ccccc2)n(C)c1=O,10.1
20,Nc1ccccc1C#Cc1ccccc1,14.3
21,Cc1cc(C)cc(N2C(=O)CC(Sc3ncn[nH]3)C2=O)c1 (stereo not drawn),15.7
22,COc1ccc(C(c2c(C)n(C)n(-c3ccccc3)c2=O)c2c(C)n(C)n(-c3ccccc3)c2=O)cc1OC,13.3
23,O=C(O)CCCNC(=O)/C=C/c1ccco1,17.8

row,Compound,"hERG current change (%, negative = inhibition) at 1uM [%]"
1,Cc1cc(NS(=O)(=O)c2cccc([N+](=O)[O-])c2)no1,19.1
2,Cc1cc(C)c(Cn2cnc3ccccc32)c(C)c1,4.3
3,Cc1cc(N2CCN(C)CC2)nc2ccc(NC(=O)c3ccc(Br)o3)cc12,-39.1
4,Cn1c(CNC(=O)CNC(=O)c2cccc(Cl)c2)cc(=O)n(C)c1=O,16.9
5,Cc1c(OCC(=O)NCCCN2CCOCC2)ccc2c3c(c(=O)oc12)CCCC3,9.41
6,Cc1ccc(NC(=O)COC(=O)c2ccccc2Cl)cc1S(=O)(=O)N(C)C,-1.16
7,CCOC(=O)c1sc2ncn(CC(=O)NCC3CCCO3)c(=O)c2c1C (stereo not drawn),5.17
8,Cc1ccc(S(=O)(=O)N(C)CC(=O)NCCc2c[nH]c3ccccc23)cc1,5.49
9,COc1ccccc1CNC(=O)CN1CCN(Cc2ccc(Cl)cc2)C1=O,2.97
10,COc1ccccc1/C=N/OCc1cc(C(C)=O)ccc1OC,15.1
11,CC[n+]1c(S(=O)(=O)[O-])ccc2ccc(C)cc21,12.9
12,COc1ccc(NS(=O)(=O)c2cc(N/C(=N\S(=O)(=O)c3ccccc3)c3ccc(F)cc3)ccc2Cl)cc1,0.862
13,CCn1c(C(O)c2cc(OC)ccc2OC)nc2ccccc21 (stereo not drawn),12.6
14,CCOC(=O)c1ccc(NC(=O)CN2C(=O)NC3(CCC(C)CC3)C2=O)cc1 (stereo not drawn),11.4
15,COc1ccc(CC(=O)OCC(=O)NC(=O)NC(C)C)cc1,6.13
16,CC(OC(=O)Cc1c[nH]c2ccccc12)C(=O)N(C)c1ccccc1 (stereo not drawn),0.419
17,CCN(CC(=O)Nc1ccc(NC(C)=O)cc1)C(=O)c1ccc2ccccc2c1,17.8
18,CCCn1c(=O)c(C#N)cn(C2CC2)c1=O,9.74
19,COc1ccc(-c2cc(C(=O)NNC(=O)c3csc(N4CCOCC4)n3)c3ccccc3n2)cc1OC,15.1
20,Oc1cccc(/C=N/NC(=S)NCCN2CCOCC2)c1O,15.3
21,CCC(C)N1C(=S)SC(C)(C)C1N(O)C(=O)NC1CCCCC1 (stereo not drawn),14.3
22,O=C(NC1CCCC1)c1cccc(Cn2cc([N+](=O)[O-])cn2)c1,-9.75
23,O=C(O)CCN1c2cccc3cccc(c23)S1(=O)=O,7.78

row,Compound,"hERG current change (%, negative = inhibition) at 1uM [%]"
1,Cc1ccccc1NCC(=O)N/N=C\C=C\c1cccc([N+](=O)[O-])c1,-15.1
2,CCOC(=O)c1ncn2c1CN(C)C(=O)c1cc(F)ccc1-2,16.6
3,CCOC(=O)c1ccc(NC(=O)CSCc2ccco2)cc1,12.4
4,COC(=O)c1c(C)nn(-c2ccccc2)c1-n1cccc1,4.55
5,CN(C)C(=O)CNC(=O)C1CCCCC1,8.76
6,COc1ccc(Cc2nc(C(=O)Nc3ccccc3)cs2)cc1,10.8
7,CCCCn1c(=O)c(CCC(=O)OCC(=O)Nc2ccc(F)c(Cl)c2)nc2ccccc21,14.7
8,CCCCCC(=O)NC(=S)Nc1ccc(Cl)cn1,3.28
9,Cc1ccc(-c2cn(-c3ccccc3F)c(=S)[nH]2)cc1,15.9
10,CCOc1ccc(C(=O)CCC(=O)NC(C)C(=O)OC)cc1 (stereo not drawn),2.1
11,CCOC(=O)Nc1ccc2c(c1)N(CCCN(C)C)c1ccccc1CC2.Cl,-1.92
12,O=C(CCC(=O)OCC(F)(F)C(F)F)Nc1ccc(F)cc1F,11.6
13,CCOC(=O)c1ccc(NC(=O)c2cccc3c2C(=O)N(CC2CCCO2)C3)cc1 (stereo not drawn),9.99
14,COC(=O)C1=C(c2cccc(OCc3ccccc3)c2)C[C@@H]2CC[C@H]1N2C(=O)NCCCc1ccccc1,7.11
15,COC(=O)c1ccc(NC(=O)C2CCN(S(C)(=O)=O)CC2)cc1,9.85
16,N#C/C(=C\c1cccc(O)c1)C(=O)N1CCCCC1,15.1
17,O=C(CSc1nc2ccccc2c(=O)[nH]1)N1CCCCCC1,12.6
18,CC1CCN(Cc2c(C(=O)N3CCc4ccccc4C3)nc3ccc(Cl)cn23)CC1,9.3
19,O=C(CNS(=O)(=O)c1cccs1)NCc1ccc(F)cc1,0.971
20,CSCCC(NC(=O)c1ccco1)c1nc2ccccc2[nH]1 (stereo not drawn),13.4
21,Cc1ccc(-c2csc(NC(=O)C3=COCCO3)n2)cc1,8.06
